# This is one part of the list.
# What was measured:
# [1] = test system: HSkMC (human skeletal muscle cells); experiment: cytotoxicity call (relative viability < 0.9); conditions: 10 µM
# [2] = test system: HepG2; experiment: cytotoxicity call (relative viability < 0.9); conditions: 10 µM
# [3] = test system: S. aureus RN4220; experiment: growth inhibition call (relative growth <= 0.2); conditions: 50 µM
Structure (SMILES),cytotoxicity call [1],cytotoxicity call [2],growth inhibition call [3]
O=C(C1=C[C@H](c2coc3ccccc3c2=O)C[C@H](OCc2ccc(CO)cc2)O1)N1CCCCCCC1,inactive,inactive,inactive
CO[C@H]1CN(C)C(=O)c2cc(NS(=O)(=O)c3cn(C)cn3)ccc2OC[C@@H](C)N(CCC(F)(F)F)C[C@@H]1C,inactive,inactive,inactive
COc1ccc(NC(=O)N(C)C[C@H]2OCCCC[C@H](C)Oc3ccc(NC(=O)Nc4ccc5c(c4)OCO5)cc3C(=O)N([C@@H](C)CO)C[C@@H]2C)cc1,inactive,inactive,inactive
COc1ccc2c3c([nH]c2c1)[C@@H](CO)N(C[C@]13CCN(CC1)CC1CCCC1)C(=O)Nc1cccc(c1)F,inactive,active,inactive
O=C(C[C@@H]1C[C@H]2c3cc(NS(=O)(=O)c4ccc(F)cc4)ccc3O[C@H]2[C@H](CO)O1)NCc1cccnc1,inactive,inactive,inactive
C[C@@H]1CCCCO[C@H](CN(C)Cc2ccc(C(=O)O)cc2)[C@H](C)CN([C@@H](C)CO)C(=O)c2cc(NS(=O)(=O)c3cccs3)ccc2O1,inactive,inactive,inactive
COc1ccc(CN(C)C[C@H]2Oc3ccc(NC(=O)CCCCCC(=O)Nc4ccccc4N)cc3C(=O)N([C@H](C)CO)C[C@H]2C)cc1,inactive,inactive,inactive
C[C@@H]1CN([C@@H](C)CO)C(=O)Cc2cc(NC(=O)c3ccncc3)ccc2O[C@@H]1CN(C)S(C)(=O)=O,inactive,inactive,inactive
C[C@H](CO)N1C[C@H](C)[C@@H](CN(C)C(=O)NC2CCCCC2)Oc2ccc(NC(=O)c3ccncc3)cc2CC1=O,inactive,inactive,inactive
